# Data: article PMC12136788
# The list shows a part of the results.
# T1: UNK ZnF1-3 (human, UniProt Q9C0B0 31-174)
# T1 sequence: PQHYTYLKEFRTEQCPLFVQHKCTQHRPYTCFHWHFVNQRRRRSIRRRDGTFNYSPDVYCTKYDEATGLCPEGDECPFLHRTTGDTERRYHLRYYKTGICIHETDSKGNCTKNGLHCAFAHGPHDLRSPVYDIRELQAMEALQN
# B1: chr14:57741442:57741443:+_ENSG00000053770_ENST00000261558|hu_hu|motif|central (ssRNA)
# RNA: GGGAGUUCUACAGUCCGACGAUCAGUUUUCCAAGCUGGCUGUUUCUGUGGCUGAGUCACAGAUGCAAAAUUGGUAUUAUCGGAUGAAUUCUGUAAGUUGGCAUCUAAUAAAGUACCAAAUGGACAAGCCUGCAGAAGCAAGUCCAACAGAGGAUUGAGCAUCA
# B2: chr12:96407613:96407614:-_ENSG00000111144_ENST00000228740|hu_mus|FALSE|FALSE (ssRNA)
# RNA: GGGAGUUCUACAGUCCGACGAUCCUUCCAGUCAUCAGUCGUUACACUUUGGUAGGAAAACUUCUUAACAUAAGCCUUUAAGAAUCCUAGAAACACCUCUGGUCCCCCAAGAAGCUGUUCAAGGUAGAAGAGUAGCGCAAAGCCCAACAGAGGAUUGAGCAUCA
# B3: chr16:45382771:45382772:-_ENSMUSG00000022661_ENSMUST00000163230|mus_mus|mus_mus_mus_hu_True|8_68 (ssRNA)
# RNA: GGGAGUUCUACAGUCCGACGAUCCUGGGUCAUGUUAUAAGACAAAUGGACAGGGAGGGCAUGCUUCUGUAAAGAUGUGAGCUAUUGUCUAAGACUAACAAUAUUUAUCUAGCUAUAAAAAUAAGUUUUAAAUGGACGUUAAGACAACAGAGGAUUGAGCAUCA
# B4: chr14:89307221:89307222:+_ENSG00000165533_ENST00000346301|hu_mus|hu_hu_hu_mus_False|58_108 (ssRNA)
# RNA: GGGAGUUCUACAGUCCGACGAUCUCCUGUCUGAUUAGUGCCAGGGAGCUUCAAAGAUGUGCCAGGGCGUGGGACCUGAGCUAUAGCAUUUUCAUCCAGGAUCAUUUCAGCAAUUCCUUCCUGGUCCACAUCAAUUUCAUCUAUCAACAGAGGAUUGAGCAUCA
# B5: 44043828_44043948_361_CDS_ENSG00000167004_ENST00000538521|human|control|control (ssRNA)
# RNA: GGGAGUUCUACAGUCCGACGAUCAAUCUCCAGAAAUCUGGGGAGCAACCAGGUGUGUGUGUAAGCUGCAAGGCUGGGACUAAAAUCCACUGCCUUAAACUUUGGCAAUAUCCAUAAGGUCAUCAAAUCCACAAAAAGAGUUUCCAACAGAGGAUUGAGCAUCA
# B6: 193605556_193605676_4715_3pUTR_ENSMUSG00000026623_ENSMUST00000110855|mouse|control|control (ssRNA)
# RNA: GGGAGUUCUACAGUCCGACGAUCGAUUAUAACUAGGAACAACUAGUUGAGCAAGUCUUUAAGGUACCGAUUGUCAAAAUACAUCACUAAGACAAAUUAAUGAGAAGGAAUCCACAAGGCGUGAGUGAGAGAGCAUCCUCAGCACAACAGAGGAUUGAGCAUCA
# B7: chr6:145166005:145166006:-_ENSMUSG00000030265_ENSMUST00000032399|mus_mus|FALSE|FALSE (ssRNA)
# RNA: GGGAGUUCUACAGUCCGACGAUCCAGUAUUACACAGAAGUUAUUGAGUAUAAAUUCACCUUUAAAUAACUUUUGGGUUUAAAAAAUGACUGCAUAAUUCUCAAUAAAUCACUACUUUUUAACAAAUGGAAAUUAGUUAAAUUUCAACAGAGGAUUGAGCAUCA
# B8: chr16:14738297:14738298:+_ENSG00000103429_ENST00000261658|hu_hu|FALSE|FALSE (ssRNA)
# RNA: GGGAGUUCUACAGUCCGACGAUCGUUCAAGGUGGUGGGGUUAACCAGGAUGUCGUAGCAGCAGUGGCAAGAAAAUUCACUAACAGAAAUCUGAGGGCCGGUGCUUUUGAGAGGUUCAUCUCUCUCAAGGUCCAUUGUGUUCACCAACAGAGGAUUGAGCAUCA
# B9: 99152206_99152609_738_CDS_ENSG00000040933_ENST00000545415|human|control|control (ssRNA)
# RNA: GGGAGUUCUACAGUCCGACGAUCAGAGCCCAGUAAAUACAUUGUUCCCUGAGAUCUAUCUUUGACAUCAUACACGGAGAGUUUGACUUGUGUCAUCUGAUUGAUAAGAGAGUCUUGAAAGAAGGCAAUACUGCUUAGAAAUAUCAACAGAGGAUUGAGCAUCA
# B10: chr2:173429262:173429263:+_ENSG00000152256_ENST00000410055|hu_hu|FALSE|FALSE (ssRNA)
# RNA: GGGAGUUCUACAGUCCGACGAUCGCUCUCCUUGUAUUCAAUCACACCCUGGGCCAUUGUGGGAAUGACAUCAUUGUGUCGGUUUCUGAUCCGUAUCACAGUAUCUGUAAAGUCAUAAAUAGCUUUAGCAUCCUCAGCACUUUUCAACAGAGGAUUGAGCAUCA
# B11: chr11:31955072:31955073:+_ENSMUSG00000020297_ENSMUST00000020537|mus_hu|FALSE|FALSE (ssRNA)
# RNA: GGGAGUUCUACAGUCCGACGAUCUUUGUGCUUAUAGACGAAUCCCUCUGGGCAGCUGUGAUCAUAGGUGAAGGCUUUGUAAACCACCAGGAACACGAUGCACGCAAGGAAAGCUAGGGCCAGGCUGACAAGGAUGGUGACCGUCAACAGAGGAUUGAGCAUCA
# B12: chr17:65740002:65740003:+_ENSG00000130935_ENST00000581375|hu_hu|hu_hu_hu_mus_False|1_8 (ssRNA)
# RNA: GGGAGUUCUACAGUCCGACGAUCAACAAAUCUUUCUUCCCUGGACGAACAGGAAGAUUCAUAUUAAAAAAAAUAUAUAUCCAUCAAGUUAGGUGUGGUGGCCACACCUUUACUCCCAGCACUUUGGGAAUAUAAUCCUCUAUUCAACAGAGGAUUGAGCAUCA
# B13: chr15:25616465:25616466:-_ENSG00000114062_ENST00000438097|hu_mus|FALSE|FALSE (ssRNA)
# RNA: GGGAGUUCUACAGUCCGACGAUCAGCUUUGCAAAAUAAUGGCAACGCCAUUUCCAGAUAUUCAGGACUGUGGAGAUUACUAUUCUCCAUUACAAUAAUGAACAAAUUGAGAUAAUUAGGAUCUCGAGUAUACACAUUAUGAUACAACAGAGGAUUGAGCAUCA
# B14: chr12:79978091:79978092:+_ENSMUSG00000021116_ENSMUST00000071230|mus_mus|motif|central (ssRNA)
# RNA: GGGAGUUCUACAGUCCGACGAUCGCUCUCCAGCUGCUCAUCCUUGGUAUAUUCUAAUACCUCAGCAACAUGGCGAAGAAUGCGGUAAACAGUUUUGGAUUUUGUGAAUUUGUCCUCACAUUUGAUUGCUUCCUCUGGAGAAACCAACAGAGGAUUGAGCAUCA
# Target: T1, UNK ZnF1-3
# Test: nsRBNS (natural sequence RNA bind-n-seq); RBNS binding buffer (assumed for nsRBNS): 25 mM Tris pH 7.5, 150 mM KCl, 3 mM MgCl2, 0.01% Triton X-100, 500 ug/ml BSA, 20 U/ml SUPERase-In, 4 C; UNK is unkempt and MSI1 is Musashi-1; names of the RNAs are library labels; protein concentration not given here; high values mean tight binding
row,Binder,binding signal
1,B1,0.772 enrichment R
2,B2,1.37 enrichment R
3,B3,2.84 enrichment R
4,B4,0.819 enrichment R
5,B5,1.41 enrichment R
6,B6,2.29 enrichment R
7,B7,2.63 enrichment R
8,B8,1.1 enrichment R
9,B9,1.08 enrichment R
10,B10,1.01 enrichment R
11,B11,1.32 enrichment R
12,B12,0.918 enrichment R
13,B13,0.948 enrichment R
14,B14,0.601 enrichment R
